Among the data in paper PMC12136788 are binding signal values, retold here.

T1: UNK ZnF1-3 (human, UniProt Q9C0B0 31-174)
T1 sequence: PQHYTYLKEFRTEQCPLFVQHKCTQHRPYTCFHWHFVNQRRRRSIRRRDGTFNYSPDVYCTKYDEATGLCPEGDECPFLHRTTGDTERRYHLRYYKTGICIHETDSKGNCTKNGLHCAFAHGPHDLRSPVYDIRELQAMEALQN

B1: chr1:39494447:39494448:+_ENSG00000168653_ENST00000372967|hu_mus|hu_hu_hu_mus_False|78_78 (ssRNA)
RNA: GGGAGUUCUACAGUCCGACGAUCGCACCGAGCGGCGUUCUUAUAGGGCUGUUCUGCACUCUGGAUUAUAAAGUGCCGGUCCAGGCUGAUGCCCAGCUUUUUCUGUAUGUCAAGGAAAGGCAUGGCUCUGCAGUGCCCUUGUCACAACAGAGGAUUGAGCAUCA
B2: chr17:64801638:64801639:+_ENSG00000154229_ENST00000413366|hu_mus|hu_hu_hu_mus_False|8_88 (ssRNA)
RNA: GGGAGUUCUACAGUCCGACGAUCUAUAUAUAUAUAUACAUAUGUACACAUAUGUAGUAAAACCCUAGUUAAACGUGUAAAGUAGCCAUUCAUUUUUAAAAUUACAUCUACAUUAAAAAAUUAAUAUAUCUGAUACAGUGCCAGCAACAGAGGAUUGAGCAUCA
B3: chr5:128448638:128448639:+_ENSG00000066583_ENST00000173527|hu_mus|hu_hu_hu_mus_False|18_28 (ssRNA)
RNA: GGGAGUUCUACAGUCCGACGAUCGGCACUCGCCUUAAUUAGGUUCUGAAUUUCCUUGAACUUCGGGUGGUCUUUGUCAGCCACCAGCUGUAGGAGGACAGCCUCACUCGUGGUCACUAUGAUCCCGGUGCGGGCAAGACGCUCCAACAGAGGAUUGAGCAUCA
B4: chr5:73612201:73612202:-_ENSMUSG00000070733_ENSMUST00000101127|mus_hu|FALSE|FALSE (ssRNA)
RNA: GGGAGUUCUACAGUCCGACGAUCUCACUUAGAAAUGGUUGUUGAGGCACAGAGUUUGUAGAAAAGACACCAAGUUUGGAAAGGAUCCAUCUAGAAGCUUUUUUGAUCUGGAGCUUGUACUUUACAGGCACUCGAGUGGGCACACAACAGAGGAUUGAGCAUCA
B5: chr16:23109248:23109249:+_ENSMUSG00000022884_ENSMUST00000115341|mus_hu|motif|central (ssRNA)
RNA: GGGAGUUCUACAGUCCGACGAUCAAGUGCCAGAAUUACCUUUUGGAUCUGUUGAGCCAGUUCUCUGGUGGGGGCCAAUACGGGUGCUUGGGUCUCCUUGAACUCAAUCUCCAACUGUUGCAGGAUGGAAAUAGCAAAUGUGGCCAACAGAGGAUUGAGCAUCA
B6: 9633971_9634091_4102_CDS_ENSMUSG00000048264_ENSMUST00000174552|mouse|control|control (ssRNA)
RNA: GGGAGUUCUACAGUCCGACGAUCCAUCACCGAAUAGGAACAGAAGGUAUCCCGGACUUUGUAUUGACUCACAGCAAGAAGCCACAAGGCAGGAUUGGUCUCCAGCUCAGAGGGUGGGAUCAGAAUGGACUGGUGUCCUGAGUACAACAGAGGAUUGAGCAUCA
B7: chrX:140365678:140365679:-_ENSMUSG00000031285_ENSMUST00000033642|mus_hu|FALSE|FALSE (ssRNA)
RNA: GGGAGUUCUACAGUCCGACGAUCGUCAGAGGACACAGCGUACACAAUCCCCUUGAAGUAGCGGUCCCCAUUGCGGUAGAAACGUACCUUCUUGGCUUUCUUCUCAUUACUCAGUGCCUGCAAGGUUCUGGUUCGGUAGAAGCUCAACAGAGGAUUGAGCAUCA
B8: 141029216_141029336_8087_CDS_ENSMUSG00000040761_ENSMUST00000078886|mouse|control|control (ssRNA)
RNA: GGGAGUUCUACAGUCCGACGAUCUGAGCCCUUCACAGGGCCCUUUAAGGCAUUCACCGGGACCAGAGAGACAUUCACCAGACCAGUCAGGGCACUCACCAGGCCAGUCAGGGUCUGAGGAGCUGGCUUUGCCAACGUGAUCUUCAACAGAGGAUUGAGCAUCA
B9: chr16:94664741:94664742:+_ENSMUSG00000040785_ENSMUST00000117648|mus_hu|mus_mus_mus_hu_False|28_98 (ssRNA)
RNA: GGGAGUUCUACAGUCCGACGAUCUGGUACUGAUCUUUGCAUUGGAUAUUCAGGAGAAAGGCUGGCCAAGGGUGUAUAUAUGCUGGUGUACUGGGGCAAACCUGGUACCAUGUUAAUGUAUGCUGGCGGUGUCUGGGUGAUAUCCAACAGAGGAUUGAGCAUCA
B10: 37564219_37564339_4418_CDS_ENSG00000125686_ENST00000300651|human|control|control (ssRNA)
RNA: GGGAGUUCUACAGUCCGACGAUCUCCACUACUUUCCCCAGGUUUCUGCAAAGUCACUUUGGCUUUAAUGCUAGGGGAGCCUCCAUCAUGCUUACUGAUGAUAAUUUUUGCCACACCUGUGCUCCCCACAUUUUUUGACUCUGACAACAGAGGAUUGAGCAUCA
B11: 6138544_6138664_1533_ncRNA_ENSMUSG00000034377_ENSMUST00000152672|mouse|control|control (ssRNA)
RNA: GGGAGUUCUACAGUCCGACGAUCCGUUCUCAUUUUCAAGUUCUUAGCGGGAAACCACACCAAUCCUUUGGAGAAAGAGCUGUUAGUAAGUGAUGAUGAAGAGGCAGUUCUCUUCGCUUUUACUCAGCCUCGUUAUUCUCAGCCCAACAGAGGAUUGAGCAUCA
B12: 111179025_111179145_4737_3pUTR_ENSMUSG00000046785_ENSMUST00000060711|mouse|control|control (ssRNA)
RNA: GGGAGUUCUACAGUCCGACGAUCACUGUAAAGCCAUCUGCUGAAGGGAAAGUGAGAGGAAGAGCAGGUCUGGGAGAAAGAGCCAAGAUGUGAAAGAGCAAAGAGUUAGCAAUAUUAGCAACUAUGAUUUACAGGGAAAUCUCACAACAGAGGAUUGAGCAUCA
B13: 53434051_53437351_1664_CDS_ENSMUSG00000032030_ENSMUST00000166367|mouse|control|control (ssRNA)
RNA: GGGAGUUCUACAGUCCGACGAUCAUACCUCAUAAAAACAUCUUUGUUUUGUACAUAUUUAAGUACCAAGAGCACUUCUUUAAGCUUUGCUUCAAUCUCCUCAGAUGUUAGUUUUUUGCUUAAUGGCGUUUUCCUUAACAACAUCAACAGAGGAUUGAGCAUCA
B14: chr19:16212804:16212805:+_ENSG00000167460_ENST00000300933|hu_mus|hu_hu_hu_mus_False|38_78 (ssRNA)
RNA: GGGAGUUCUACAGUCCGACGAUCAACAAUUCUGGAGUGAAGGAAAGAUGUAACAUGCAAUUAAUUAAAAGCUCAGUCAGAAGGCACAUGGGCAACAAUGACUAUUUCAGCAUUCUCGCUUGGAAUGCUUAAAGACAAUCUGUUCAACAGAGGAUUGAGCAUCA
B15: chr1:52223104:52223105:-_ENSMUSG00000026103_ENSMUST00000114513|mus_hu|FALSE|FALSE (ssRNA)
RNA: GGGAGUUCUACAGUCCGACGAUCGUUGUCAGAAUCUCCUUGAGGUGUGUACUGGACUUGGUAUUCUUGGAGAAUUUUAAAUACAUCAUGGUGUCCAAAGUGCAGUGCUUCAUCCAUGGGAGUGUUAUUCCACCUGUCCUUGGGCAACAGAGGAUUGAGCAUCA
B16: chr19:8913615:8913616:-_ENSMUSG00000071658_ENSMUST00000096259|mus_hu|mus_mus_mus_hu_False|8_78 (ssRNA)
RNA: GGGAGUUCUACAGUCCGACGAUCAGGGUACCAAAACCUUCUGCCUGAAAUGGGUGCCCCACCCUGCAGGGAGUUGCAGCUGAAAGUAUCUGAUGCAGAAGCAGUGACUAUACGAAAGGAGGCCCCUGAUGCUCAGAAGGCCAGCAACAGAGGAUUGAGCAUCA
B17: chr7:90019490:90019491:+_ENSMUSG00000057706_ENSMUST00000082237|mus_hu|motif|central (ssRNA)
RNA: GGGAGUUCUACAGUCCGACGAUCUCCGUCACAAUUGUGUGAUUAUUAAAAUAAUACAGUGUUCUUUGCCAUAAGGCCAUACGGAAAUAAAAAGAUUUAACCCAGCUACAAAAAAGUUCACUGAACUUAAAUUAAAAUACUUGUCAACAGAGGAUUGAGCAUCA
B18: chr8:38205342:38205343:-_ENSG00000147548_ENST00000316985|hu_hu|motif|central (ssRNA)
RNA: GGGAGUUCUACAGUCCGACGAUCCAGAAUUUCAUGUGGUCUUGUGUUUGGAAUUUCUGAAUGAUAAUAGUCAGUGGGGCGGAAGUUUCUAACUGCACCAAAGCCAUUGGCUGACCCAUUAGGAUACUGAUUAUAUGACUGGUACAACAGAGGAUUGAGCAUCA
B19: chr3:54535082:54535083:-_ENSMUSG00000027752_ENSMUST00000029316|mus_hu|FALSE|FALSE (ssRNA)
RNA: GGGAGUUCUACAGUCCGACGAUCGCAGGCAUCCAAAAUGUUUCCAUCGUAGUCGAGGCAAAUGAGAUCACAGUAUAGAACCCAGACAAGCUUUCCUGGAGAAAUGCAUAAGUCCUCUUUCUGAAUUAUCUGUGAAUUUUCAAUCAACAGAGGAUUGAGCAUCA
B20: chr1:130270616:130270617:-_ENSMUSG00000026356_ENSMUST00000027602|mus_mus|FALSE|FALSE (ssRNA)
RNA: GGGAGUUCUACAGUCCGACGAUCGUAAUGAUAAUUAAAGGCCAUUUCAAUAUCCAAACCAACAAAUUCAGUCAGAUGUCUAUGGGUAUUGGAGUCUUCAGCUCUGAAAACUGGUCCAAUGCAGAAAACCUUCUCAAAAUCAGCCAACAGAGGAUUGAGCAUCA
B21: chr1:76259871:76259872:+_ENSG00000137955_ENST00000319942|hu_mus|motif|central (ssRNA)
RNA: GGGAGUUCUACAGUCCGACGAUCAUCCACCAUAUCUCCUGGUCUGUCUGCAAAUCCUCCCGUCUCUUCAUCUUGACACGCGGAGAUGAAACUUCGAAGCUUUUCUCUGUCAAUCCAAUGAAGUCUCCCGAUGAUCUUUAGGGACAACAGAGGAUUGAGCAUCA
B22: 52898879_52899641_1862_CDS_ENSMUSG00000035247_ENSMUST00000042052|mouse|control|control (ssRNA)
RNA: GGGAGUUCUACAGUCCGACGAUCCUUCAAGUAGAGCGGUGCCAUUUCUGGAUCCCCUCUGGGUUCAUUGCAUUCCUCUUCAUCUUUGUUUGUAUCUUUCUUUUUUUUGUCAUCCCCUUUAUUAACUGGACACAUCCAAUCACCCAACAGAGGAUUGAGCAUCA

Some of the results follow.

This test deals with T1, UNK ZnF1-3. The test can be described thus: nsRBNS (natural sequence RNA bind-n-seq); RBNS binding buffer (assumed for nsRBNS): 25 mM Tris pH 7.5, 150 mM KCl, 3 mM MgCl2, 0.01% Triton X-100, 500 ug/ml BSA, 20 U/ml SUPERase-In, 4 C; UNK is unkempt and MSI1 is Musashi-1; names of the RNAs are library labels; protein concentration not given here; high values mean tight binding.
B1: the binding signal turned out to be 0.884 enrichment R.
B2: the binding signal stood at 2.01 enrichment R.
B3 gave a binding signal of 0.459 enrichment R.
In the case of B4 it was 1.28 enrichment R; in that of B5, 1.31 enrichment R; in that of B6, 1.61 enrichment R.
In the case of B7 it was 0.93 enrichment R.
Regarding B8, the binding signal turned out to be 0.763 enrichment R.
In the case of B9 it was 1.16 enrichment R.
B10 gave a binding signal of 0.639 enrichment R.
In the case of B11 it was 0.983 enrichment R; in that of B12, 2.54 enrichment R; in that of B13, 0.444 enrichment R.
As for B14, the figure is 1.2 enrichment R.
In the case of B15 it was 0.81 enrichment R; in that of B16, 1.01 enrichment R.
For the molecule B17, the binding signal worked out at 1.69 enrichment R.
In turn, B18 displayed a binding signal of 1.21 enrichment R.
In the case of B19 it was 1.86 enrichment R; in that of B20, 0.972 enrichment R; in that of B21, 0.752 enrichment R.
In the case of B22 it was 0.444 enrichment R.
